# Laboratory results as given in PubChem BioAssay (NCATS).
# Values joined by “and” are separate entries in the source; they are usually repeats but may differ in a detail not shown here. Equal values may be shown once. The inconclusive results got no clear call from the source; some entries with a clear call stand among them for comparison. A potency beside an inconclusive call is a rough fit, not a confirmed value. Active and inactive are the calls of the source. Calls come from the whole dose curve; as a rule, active = well fitted cell-killing curve with a large enough effect; inconclusive = small, poorly fitted or top-dose-only effect, or effect the other way; inactive = flat fitted curve, though single readings scatter.
# Tests used:
# Test in all cases: Primary qHTS to identify gynecologic anti-cancer compounds using libraries of approved drugs and bioactive compounds (AID 1345084); note: nearly all actives have a fitted effect of over 55% in size
# Conditions in all cases: Gynecologic cancer cell panel viability, ATPlite luminescence, 48 h; series mostly up to 57.5 µM
# JEG-3 = test system: JEG-3
# Procedure, shortened: (§1)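 Cytotoxicity screen measuring ATP content by luciferase luminescence. Each compound is applied at five concentrations for 48 h at 37 C with 5% CO2.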
# OV90 = test system: OV90
# Procedure, shortened: as §1
# SKOV3 = test system: SKOV3
# Procedure, shortened: as §1
# Tov-21-G = test system: Tov-21-G
# Procedure, shortened: as §1
# Tov112D = test system: Tov112D
# Procedure, shortened: as §1
# PA-1 = test system: PA-1
# Procedure, shortened: as §1
# % is set by controls: 0 for no effect and ±100 for the full control effect; potency is the fitted concentration of half-maximal effect; tags give direction and shape of the fitted curve.
smiles,measurement,setting,value
O=C1NC(=O)C(c2cnc3ccccn23)=C1c1cn2c3c(cccc13)CN(C(=O)N1CCOCC1)CC2,Potency,JEG-3,inactive
same,Potency,OV90,"inconclusive: 0.355 µM [rising, partial curve, poor fit]"
same,Potency,SKOV3,active: 1.41 µM
same,Potency,Tov-21-G,"inconclusive: 1.58 µM [cytotoxic, full curve, poor fit]"
same,Potency,Tov112D,inactive
CCN(CCCCOC(=O)c1ccc(OC)c(OC)c1)C(C)Cc1ccc(OC)cc1 (stereo not given),Potency,OV90,"inconclusive: 39.8 µM [cytotoxic, single point]"
same,Potency,PA-1,inactive
COc1cc(/C=C/C(=O)O[C@H]2CC[C@]34C[C@]35CC[C@]3(C)[C@@H]([C@H](C)CCC=C(C)C)CC[C@@]3(C)[C@@H]5CC[C@H]4C2(C)C)ccc1O,Potency,JEG-3,inactive
COc1cc2c(cc1OC)-c1cc(=Nc3c(C)cc(C)cc3C)n(C)c(=O)n1CC2,Potency,JEG-3,"inconclusive: 39.8 µM [cytotoxic, single point]"
same,Potency,PA-1,"inconclusive: 39.8 µM [cytotoxic, single point]"
same,Potency,SKOV3,"inconclusive: 35.5 µM [cytotoxic, single point]"
same,Potency,Tov-21-G,"inconclusive: 15.8 µM [cytotoxic, partial curve, poor fit]"
same,Potency,Tov112D,"inconclusive: 39.8 µM [cytotoxic, single point]"
CCn1cc(C(=O)O)c(=O)c2cnc(N3CCCC3)nc21,"activity change, negative = cytotoxicity",PA-1,inactive: 3.4% [at 11.6 µM]
CN1CCCC(n2nc(Cc3ccc(Cl)cc3)c3ccccc3c2=O)CC1 (stereo not given),Potency,OV90,"inconclusive: 5.62 µM [cytotoxic, partial curve, poor fit]"
same,Potency,PA-1,"inconclusive: 31.6 µM [cytotoxic, single point]"
same,Potency,Tov-21-G,"inconclusive: 31.6 µM [cytotoxic, single point]"
same,Potency,Tov112D,"inconclusive: 31.6 µM [cytotoxic, single point]"
CCCc1nc(C)c2c(=O)[nH]c(-c3cc(S(=O)(=O)N4CCN(CC)CC4)ccc3OCC)nn12,Potency,OV90,inactive
same,Potency,PA-1,"inconclusive: 39.8 µM [rising, single point]"
COC(=O)c1ccc2c(C(=Nc3ccc(N(C)C(=O)CN4CCN(C)CC4)cc3)c3ccccc3)c(O)[nH]c2c1,Potency,OV90,"inconclusive: 3.16 µM [cytotoxic, single point]"
same,Potency,PA-1,"inconclusive: 7.08 µM [cytotoxic, single point]"
same,Potency,Tov-21-G,"inconclusive: 1.78 µM [cytotoxic, full curve]"
CCN(CC)CCCC(C)Nc1ccnc2cc(Cl)ccc12 (stereo not given),Potency,OV90,"active: 5.62 µM and inconclusive: 794 nM [cytotoxic, full curve, poor fit]"
same,Potency,SKOV3,"inconclusive: 0.0631 µM [rising, full curve, poor fit]"
NC(=O)c1noc([C@H](CCCC2CCCCC2)CC(=O)NO)n1,Potency,PA-1,"inconclusive: 14.1 µM [cytotoxic, single point]"
same,Potency,SKOV3,"inconclusive: 0.112 µM [rising, full curve, poor fit]"
CN1CCN(CCCN2c3ccccc3Sc3ccc(S(=O)(=O)N(C)C)cc32)CC1,Potency,PA-1,"inconclusive: 35.5 µM [cytotoxic, partial curve, poor fit]"
Cc1c(C(C)C)c(=O)n(-c2ccccc2)n1C,Potency,PA-1,inactive
CCc1cc2c(cc1N1CCC(N3CCOCC3)CC1)C(C)(C)c1[nH]c3cc(C#N)ccc3c1C2=O,Potency,OV90,inactive
same,Potency,SKOV3,"inconclusive: 0.316 µM [cytotoxic, single point]"
O=C1NS(=O)(=O)c2ccccc21,Potency,PA-1,inactive
CC(C)=CCC[C@@](C)(O)[C@H]1CC=C(C)CC1,Potency,PA-1,inactive
CC(=O)Oc1ccc(C2(c3ccc(OC(C)=O)cc3)C(=O)Nc3ccccc32)cc1,Potency,OV90,active: 8.91 µM
same,Potency,Tov-21-G,"inconclusive: 3.16 µM [cytotoxic, full curve, poor fit]"
same,Potency,Tov112D,"inconclusive: 2.82 µM [cytotoxic, full curve]"
NC(N)=NC(N)=NCCc1ccccc1,Potency,OV90,"inconclusive: 11.2 µM [cytotoxic, partial curve, poor fit]"
same,Potency,PA-1,"inconclusive: 39.8 µM [cytotoxic, single point]"
same,Potency,SKOV3,active: 14.1 µM
same,Potency,Tov-21-G,inactive
CC(=O)Oc1ccc(C(c2ccc(OC(C)=O)cc2)c2ccccn2)cc1,Potency,OV90,"inconclusive: 7.08 µM [cytotoxic, full curve, poor fit]"
same,Potency,Tov-21-G,"inconclusive: 3.55 µM [cytotoxic, partial curve]"
same,Potency,Tov112D,"inconclusive: 7.94 µM [cytotoxic, full curve]"
C#Cc1cccc(Nc2ncnc3cc(OCCOC)c(OCCOC)cc23)c1,Potency,OV90,inactive
same,Potency,PA-1,"inconclusive: 31.6 µM [cytotoxic, single point]"
same,Potency,SKOV3,"active: 10 µM and inconclusive: 28.2 µM [cytotoxic, single point]"
same,Potency,Tov-21-G,"inconclusive: 12.6 µM [cytotoxic, partial curve, poor fit] and inconclusive: 17.8 µM [cytotoxic, partial curve, poor fit]"
same,Potency,Tov112D,"inconclusive: 8.91 µM [cytotoxic, partial curve]"
CC/C(=C(\c1ccccc1)c1ccc(OCCN(C)C)cc1)c1ccccc1,Potency,OV90,"inconclusive: 12.6 µM [cytotoxic, partial curve]"
same,Potency,PA-1,"inconclusive: 28.2 µM [cytotoxic, single point]"
same,Potency,SKOV3,"inconclusive: 3.55 µM [rising, single point]"
CC(=O)Nc1cccc(O)c1,Potency,PA-1,inactive
C/C=C(/C(=C/C)c1ccc(O)cc1)c1ccc(O)cc1,Potency,OV90,"inconclusive: 39.8 µM [cytotoxic, partial curve, poor fit]"
same,Potency,SKOV3,"inconclusive: 39.8 µM [cytotoxic, single point]"
COc1cccc(CCc2ccccc2OCC(CN(C)C)OC(=O)CCC(=O)O)c1 (stereo not given),Potency,OV90,"inconclusive: 39.8 µM [cytotoxic, single point]"
same,Potency,SKOV3,inactive
CN(C)CC/C=C1\c2ccccc2Sc2ccc(Cl)cc21,Potency,OV90,"inconclusive: 31.6 µM [cytotoxic, single point]"
same,Potency,SKOV3,"inconclusive: 12.6 µM [cytotoxic, partial curve, poor fit]"
same,Potency,Tov112D,"inconclusive: 39.8 µM [cytotoxic, single point]"
CCC(=O)c1ccc2c(c1)N(CCCN(C)C)c1ccccc1S2,Potency,OV90,"inconclusive: 35.5 µM [cytotoxic, single point]"
same,Potency,SKOV3,"inconclusive: 28.2 µM [cytotoxic, single point]"
CC(C)(C)NC(=O)[C@H]1CC[C@H]2[C@@H]3CC[C@H]4NC(=O)C=C[C@]4(C)[C@H]3CC[C@]12C,Potency,OV90,"inconclusive: 25.1 µM [cytotoxic, single point]"
same,Potency,SKOV3,active: 12.6 µM
CC1=C(C/C=C(\C)CCC[C@H](C)CCC[C@H](C)CCCC(C)C)C(=O)c2ccccc2C1=O,Potency,PA-1,inactive
O=C(O)CCNc1cc(N2CCc3ccccc3CC2)nc(-c2ccccn2)n1,Potency,PA-1,inactive
CCc1cc(Nc2nccc(-c3c(-c4ccc(OC)c(C(=O)Nc5c(F)cccc5F)c4)nc4ccccn34)n2)c(OC)cc1N1CCC(N2CCN(S(C)(=O)=O)CC2)CC1,Potency,PA-1,"inconclusive: 0.708 µM [cytotoxic, full curve, poor fit]"
CCN(CC)CCOCCOC(=O)C(CC)(CC)c1ccccc1,Potency,OV90,"inconclusive: 10 µM [cytotoxic, partial curve]"
same,Potency,Tov-21-G,inactive
CCN(CC)C(=O)N1CCN(C)CC1,Potency,PA-1,inactive
CCN[C@H]1C[C@H](C)S(=O)(=O)c2sc(S(N)(=O)=O)cc21,Potency,PA-1,inactive
Nc1ccc(C(=O)Nc2ccccc2N)cc1,Potency,OV90,"inconclusive: 3.98 µM [cytotoxic, full curve]"
same,Potency,PA-1,active: 11.2 µM
same,Potency,Tov-21-G,"inconclusive: 3.55 µM [cytotoxic, full curve]"
O=C1c2ccccc2C(=O)C1c1ccccc1,Potency,OV90,inactive
same,Potency,PA-1,inactive
same,Potency,SKOV3,"inconclusive: 35.5 µM [rising, single point]"
NC[C@H]1O[C@H](O[C@H]2[C@H](O[C@@H]3O[C@H](CO)[C@@H](O)[C@H]3O)C(O)[C@H](N)C[C@@H]2N)[C@H](N)[C@@H](O)[C@@H]1O (stereo not given in full),"activity change, negative = cytotoxicity",OV90,inactive: 0.648% [at 11.6 µM]
same,"activity change, negative = cytotoxicity",PA-1,inactive: 6.06% [at 11.6 µM]
same,"activity change, negative = cytotoxicity",Tov112D,inactive: 13.5% [at 11.6 µM]
C[C@H](CCC(=O)O)[C@H]1CC[C@H]2[C@@H]3C(=O)C[C@@H]4CC(=O)CC[C@]4(C)[C@H]3CC(=O)[C@]12C,Potency,OV90,inactive
same,Potency,SKOV3,inactive
OCCN1CCN(CCCN2c3ccccc3C=Cc3ccccc32)CC1,Potency,OV90,"inconclusive: 39.8 µM [cytotoxic, single point]"
same,Potency,SKOV3,"inconclusive: 0.282 µM [rising, partial curve, poor fit]"
CC(CN(C)C)CN1c2ccccc2CCc2ccccc21 (stereo not given),Potency,OV90,"inconclusive: 20 µM [cytotoxic, partial curve]"
same,Potency,SKOV3,inactive
CC1(C)O[C@@H]2C[C@H]3[C@@H]4CCC5=CC(=O)CC[C@]5(C)[C@@]4(F)[C@@H](O)C[C@]3(C)[C@]2(C(=O)CCl)O1,Potency,OV90,"inconclusive: 22.4 µM [cytotoxic, single point]"
same,Potency,SKOV3,inactive
same,Potency,Tov112D,inactive
Cc1nnc(SCC2=C(C(=O)O)N3C(=O)[C@@H](NC(=O)Cn4cnnn4)[C@H]3SC2)s1,Potency,PA-1,inactive
CCN(Cc1ccncc1)C(=O)C(CO)c1ccccc1 (stereo not given),Potency,OV90,inactive
same,Potency,Tov112D,inactive
CCCCOc1cc(C(=O)NCCN(CC)CC)c2ccccc2n1,Potency,OV90,"inconclusive: 39.8 µM [cytotoxic, single point]"
same,Potency,PA-1,"inconclusive: 25.1 µM [cytotoxic, single point]"
same,Potency,SKOV3,"inconclusive: 39.8 µM [cytotoxic, single point]"
same,Potency,Tov-21-G,"inconclusive: 39.8 µM [cytotoxic, single point]"
